Experimental data taken from patent US9896441B2 (Lycera Corporation, priority 2014, dated 2018).
For at least one compound, name, drawing or mass did not settle the structure. Some ranges recur; such a range may be that of the whole group of compounds.

Key:
RORγ-LBD = target: T1, RORγ-LBD (Homo sapiens, UniProt P51449); assay: RORγ-Ligand Binding Domain (LBD) TR-FRET Assay; assay type: biochemical; settings: maximum response;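 note: 665/615 nm signal ratio set to 100 without ursolic acid or test compound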
T1 construct: made in house; host or cells: SF9 cells (baculovirus); used as diluted lysate
T1 sequence (P51449 269-508 limits assumed): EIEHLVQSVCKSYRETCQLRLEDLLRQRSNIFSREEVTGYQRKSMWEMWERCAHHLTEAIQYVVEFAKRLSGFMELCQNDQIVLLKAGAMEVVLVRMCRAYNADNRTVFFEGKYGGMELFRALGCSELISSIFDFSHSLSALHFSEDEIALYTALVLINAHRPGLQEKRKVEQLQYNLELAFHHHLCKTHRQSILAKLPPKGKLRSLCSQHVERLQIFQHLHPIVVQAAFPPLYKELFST
Description: (§1) Assay procedures and results are described below.
HIS-tagged RORγ-LBD protein was expressed in SF9 cells using a baculovirus expression system. The lysate was diluted in assay buffer (50 mM Tris pH 7.0, 50 mM KCl, 1 mM EDTA, 0.1 mM DTT, 0.01% BSA) to obtain RORγ-LBD final concentration of ˜3 nM in a 384-well assay plate (need to titrate for each batch of protein).
A stock of biotinylated-LXXLL peptide from coactivator SRC1 (Biotin-[…]) was prepared in assay buffer and added to each well (200 nM final concentration). […] RORγ antagonist ursolic acid was also included at a final concentration of 2 μM. Compounds were diluted in DMSO and further diluted in assay buffer with a final DMSO concentration at 1%.

Gal4-RORγ-LBD = target: T2, Gal4-RORγ-LBD (Homo sapiens, UniProt P51449); assay: Gal4-RORγ Luciferase Reporter Assay in HEK-293T Cells; assay type: cell-based; settings: HEK-293 cells, in presence of ursolic acid, maximum response
T2 construct: expressed in transfected cells
T2 sequence (P51449 269-508 limits assumed): T1 sequence (P51449 269-508 limits assumed)
Description: as §1
In the following protocol, HEK-293 cells were transfected with a construct comprising the Gal4 DNA binding domain fused to the ligand binding domain of RORγ (Gal4-RORγ-LBD) in a pcDNA3.1neo plasmid, and also with a reporter construct comprising pGL4.31 Gal4-luciferase (Promega). Control cells were prepared similarly using empty pcDNA3.1neo and pGL4.31 vectors.
Trans-IT reagent (Mirus, 60 μL) at room temperature was added drop wise to OptiMEM (Invitrogen, 1.5 ml). This reagent mixture was mixed by inversion then incubated for 5 to 30 minutes at room temperature. It then was added to a solution of both expression vectors (5 μg each), mixed, and incubated at room temperature for about 20 minutes. HEK-293 cells were harvested from incubation flasks by removing the media, treating with TrypLE Express (Invitrogen), and incubating until the cells detached from the bottom of the flask (approximately 2-5 minutes). 10 Million cells were collected by centrifugation and re-suspended in 10 mL of Dulbecco's Modified Eagle Medium, High Glucose (DMEM, Invitrogen) containing 10% Fetal Bovine Serum and 100 IU each of penicillin and streptomycin. The re-suspended cells and the transfection mixture were added to a T75 flask, mixed and incubated overnight at 37° C. and 5% CO2.
The cells were harvested as described above, counted, and centrifuged to obtain the desired number of cells, then re-suspended in complete growth media at 0.75×10^6 cells/mL. The RORγ antagonist, ursolic acid, was added to the cells at a final concentration of […]. Cells were plated at 20 µL of cell suspension/well (10,000-15,000 cells/well) in white tissue culture treated 384 well plates. Test compounds were dissolved at 10 mM in DMSO then diluted into complete growth medium to 5× the final intended test concentration. These drug stock solutions, 5 µL/well were added to the tissue culture plate. The final DMSO concentration was 0.2%. The plates were briefly centrifuged then incubated overnight at 37° C. and 5% CO2. To conduct the assay, the tissue culture plates were allowed to equilibrate to room temperature and One-Glo luciferase reagent (Promega, 25 µL/well) was added. The plates were briefly centrifuged then incubated at room temperature for 10 minutes. The luciferase intensity was read on an Envision plate reader (Perkin Elmer). […] The luciferase signal in the absence of ursolic acid or test compound is defined at 100. The Max Response is the upper plateau in the signal as determined by line-fit using a 4-parameter logistic model in PRISM (GraphPad).

Row | Compound | TR-FRET Assay Max Response (RORγ-LBD) | Gal4-RORγ Assay Max Response (Gal4-RORγ-LBD)
1 | O=C(O)CC[C@H]1CC(S(=O)(=O)c2cccc(C(F)(F)F)c2)c2cc(OCc3c(F)cccc3Cl)ccc2O1 (stereo in doubt) [Example 186A, 3-(6-((2-chloro-6-fluorobenzyl)-oxy)-4-((3-(trifluoromethyl)-phenyl)sulfonyl)chroman-2-yl)propanoic acid] | ** (a value in the range of greater than 90 to 150) | ** (a value in the range of greater than 90 to 150)
2 | COc1cc(S(=O)(=O)N2c3cc(OCc4c(F)cccc4Cl)ccc3C=C(CNC(C)=O)[C@H]2C)ccc1F [Example 140, (R)—N-((7-((2-Chloro-6-fluorobenzyl)oxy)-1-((4-fluoro-3-methoxyphenyl)sulfonyl)-2-methyl-1,2-dihydroquinolin-3-yl)methyl)acetamide] | ** (a value in the range of greater than 90 to 150) | ** (a value in the range of greater than 90 to 150)
3 | C/C(=C\c1ccc2c(c1)N(S(=O)(=O)c1cccc(C(F)(F)F)c1)C[C@H](N)C2)c1c(F)cccc1Cl [Example 164, (R,E)-7-(2-(2-Chloro-6-fluorophenyl)prop-1-en-1-yl)-1-((3-(trifluoromethyl)phenyl)sulfonyl)-1,2,3,4-tetrahydroquinolin-3-amine] | *** (a value in the range of greater than 150 to 200) | * (a value in the range of 30 to 90)
4 | CC(=O)N[C@@H]1Cc2ccc(OCc3c(F)cccc3Cl)cc2N(S(=O)(=O)c2cccc(C(F)(F)F)c2)C1 [Example 160, (R)—N-(7-((2-chloro-6-fluorobenzyl)oxy)-1-((3-(trifluoromethyl)phenyl)sulfonyl)-1,2,3,4-tetrahydroquinolin-3-yl)acetamide] | ** (a value in the range of greater than 90 to 150) | * (a value in the range of 30 to 90)
5 | C/C(=C\c1ccc2c(c1)N(S(=O)(=O)c1cccc(C(F)(F)F)c1)C[C@H](CCN1CCCC1)O2)c1c(F)cccc1Cl [Example 118, (S,E)-6-(2-(2-Chloro-6-fluorophenyl)prop-1-en-1-yl)-2-(2-(pyrrolidin-1-yl)ethyl)-4-((3-(trifluoromethyl)phenyl)sulfonyl)-3,4-dihydro-2H-benzo[b][1,4]oxazine] | *** (a value in the range of greater than 150 to 200) | ** (a value in the range of greater than 90 to 150)
6 | N[C@@H]1Cc2ccc(OCc3c(F)cccc3Cl)cc2N(S(=O)(=O)c2cccc(C(F)(F)F)c2)C1 [Example 159, (R)-7-((2-Chloro-6-fluorobenzyl)oxy)-1-((3-(trifluoromethyl)phenyl)sulfonyl)-1,2,3,4-tetrahydroquinolin-3-amine] | *** (a value in the range of greater than 150 to 200) | ** (a value in the range of greater than 90 to 150)
7 | O=S(=O)(c1cccc(C(F)(F)F)c1)N1C[C@@H](O)Cc2ccc(OCc3c(F)cccc3Cl)cc21 [Example 158, (S)-7-((2-Chloro-6-fluorobenzyl)oxy)-1-((3-(trifluoromethyl)phenyl)sulfonyl)-1,2,3,4-tetrahydroquinolin-3-ol] | ** (a value in the range of greater than 90 to 150) | ** (a value in the range of greater than 90 to 150)
8 | COc1cc(S(=O)(=O)N2c3cc(OCc4c(F)cccc4Cl)ccc3C=C(CN)[C@H]2C)ccc1F [Example 139, (R)-(7-((2-Chloro-6-fluorobenzyl)oxy)-1-((4-fluoro-3-methoxyphenyl)sulfonyl)-2-methyl-1,2-dihydroquinolin-3-yl)methanamine] | ** (a value in the range of greater than 90 to 150) | ** (a value in the range of greater than 90 to 150)
9 | COC(=O)CO[C@@H]1Cc2ccc(OCc3c(F)cccc3Cl)cc2N(S(=O)(=O)c2cccc(C(F)(F)F)c2)C1 [Example 173A] | ** (a value in the range of greater than 90 to 150) | * (a value in the range of 30 to 90)
